From PubChem BioAssay AID1508624 (National Center for Advancing Translational Sciences (NCATS), 2021)
Out of some 48,000 compounds screened, about 120 (0.25%) were called active. Inconclusive results (about 4%) are left out. Calls come from the whole dose curve; as a rule, active = well fitted activation curve with a large enough effect; inconclusive = small, poorly fitted or top-dose-only effect, or another doubt; inactive = no such curve, though single readings can be large or run the other way. The list shows a part of the results.

Assay: Primary qHTS for Identification of Small Molecule Activators of Huntingtin-Antisense Promoter Activity; note: nearly all actives have a fitted effect of over 55% in size
Settings: HEK293 HTT-AS promoter firefly luciferase reporter (activity 0% = vehicle and -100% = no light), 24 h; series mostly up to 57.5 µM; activity change, positive = activation: at the top concentration
Method in brief: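 Firefly luciferase signal from promoter-reporter HEK293 cells was scaled between vehicle (0%) and zero RLU (-100%). Compounds were tested at final concentrations of up to 57.5 uM over 24 h at 37 degrees C. PTC124 at 50 uM final served as control inhibitor.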

Activity change, positive = activation, inactive:
CCc1nc2nc(C)cc(Nc3cc(Cl)ccc3OC)n2n1 -3.16%
CCc1ccc(CNC(=O)c2ccc(NC(=O)N3CCSc4ncccc43)cc2)cc1 -15.8%
Cc1ccc(S(=O)(=O)N2CCC(c3nnc(-c4cccc(C)c4)o3)CC2)cc1 -59.5%
CCOc1ccc(CNC(=O)CCc2c(C)nn(-c3ccc(N4CCOCC4)nn3)c2C)cc1 -8.77%
CC(C)NC(=O)Cn1c(=O)nc(-c2ccccc2)c2ccccc21 5.09%
CCOc1ccc(CCNC(=O)c2ccc(C)c(-n3cnc4cccnc43)c2)cc1 -0.0836%
Cc1ccc(S(=O)(=O)c2nc(-c3ccco3)oc2SCC(=O)c2ccc(Cl)cc2)cc1 -13%
COc1cccc(CNC(=O)c2ccc3c(Cl)c4c(nc3c2)CCCC4)c1 -13.4%
Cc1ccc(C(C)C)c(OCc2ccc(C(=O)Nc3ccc(S(N)(=O)=O)cc3C)o2)c1 -13.7%
Cc1cccc(N(C)C(=O)CS(=O)(=O)c2cccc3nsnc23)c1 -9.7%
CCOc1ccc(Nc2cc(C)c(C#N)c3nc4ccccc4n23)cc1 -3.45%
CCOc1ccccc1NC(=O)C1CCN(S(=O)(=O)c2cccc3nonc23)CC1 -9.11%
O=c1ccc2ccc(O)c(O)c2o1 -92.8%
Cc1cccc(N2CCN(C(=O)C3CCCN(C(=O)c4cc5sccc5n4C)C3)CC2)c1C (configuration not stated) -22.4%
COc1ccc(N2CCN(c3ncnc4onc(C)c34)CC2)cc1 -79.4%
N#CC(c1ccc(Cl)cc1)c1c(Cl)cc(-n2ncc(=O)[nH]c2=O)cc1Cl (configuration not stated) -20.9%
CC1=C(C(=O)Nc2ccc(F)cc2)C(c2ccc(N(C)C)cc2)NC(=O)N1 (configuration not stated) 10.1%
CCOc1ccc(CCNC(=O)Cn2ccc3cc(S(=O)(=O)N4CCCCCC4)ccc32)cc1 -35.5%
CCC1CN(C(=O)C2CCN(S(=O)(=O)c3c(C)noc3/C=C/c3ccc(C)cc3)CC2)c2cc(C)ccc2O1 (configuration not stated) 13.8%
COc1ccc(NC(=O)C(=O)c2cc(C)n(-c3ccc(C)cc3)c2C)cc1Cl -6.46%
COCCNC(=O)CCn1c(=O)[nH]c2cc(OC)c(OC)cc2c1=O 1.62%
COc1ccc(NC(=O)CSc2nnc(-c3nonc3NC(C)=O)n2C)cc1Cl -27%
O=c1cc2nc(-c3ccccc3F)nc(SCc3ccc(Br)cc3)n2[nH]1 -8.41%
CCOC(=O)c1c(C)[nH]c(C)c1S(=O)(=O)N1CCCC(C(=O)Nc2ccc(OC)c(OC)c2)C1 (configuration not stated) 17.7%
Cc1cccc(Cn2c(SCc3ccc(C(=O)NCc4cccs4)cc3)nc3cccnc32)c1 -33.9%
Cc1ccccc1-n1c2nc(=O)[nH]c(=O)c-2cc2c(Cl)cccc21 13.3%
Cc1c(Cl)cccc1NC(=O)CCn1cnnn1 -7%
CCN(CC)CCCNC(=O)C(C)n1nc(C)n2c(cc3occc32)c1=O (configuration not stated) -13.4%
COC(=O)c1cc(C)nc2c1c(=O)nc(SCc1cccc(C(F)(F)F)c1)n2C1CC1 0.969%
COc1ccc(Cl)cc1NC(=O)COC(=O)CC(C)(C)CC1=NS(=O)(=O)c2ccccc2N1 -40.7%
COCCCN1C(=O)c2[nH]nc(-c3ccccc3O)c2C1c1ccc(OC)cc1 (configuration not stated) -38.5%
O=C(C1CCC(CNS(=O)(=O)c2cccs2)CC1)N1CCN(c2ccc(Cl)cc2)CC1 (configuration not stated) -75.5%
COc1ccc(CCNC(=O)Cn2c(=O)nc(-c3ccccc3F)c3cc(Cl)ccc32)cc1OC 29.9%
COC(=O)c1ccccc1NC(=O)CN(c1ccc(Cl)cc1)S(=O)(=O)c1ccc(OC)cc1 -12.4%
Cc1ccc2[nH]c(CSc3nnc(C)s3)cc(=O)c2c1 -3.66%
COc1ccc(CNC(=O)C2CCN(c3nnc(C)c4c(C)n(-c5ccc(C)cc5)nc34)CC2)cc1 -25%
CC(C)(C)C(=O)OCOP(=O)(COCCn1cnc2c(N)ncnc21)OCOC(=O)C(C)(C)C
CCc1ccc(NC(=O)c2sc3nc(C)cc(C)c3c2NC(=O)c2ccccc2)cc1 9.54%
COc1cccc(CNC(=O)Nc2ccc3c(c2)N(C)C(=O)c2ccccc2S3)c1 -49.6%
Cc1ccc(-c2nn3c(C)nnc3c3ccccc23)cc1S(=O)(=O)NC(C)(C)CO -5.83%
Cc1ccccc1NC(=O)C1CCN(S(=O)(=O)c2cccc3nonc23)CC1 -22.2%
O=C(Nc1nnc2n1CCS2)c1cc(C(F)(F)F)cc(C(F)(F)F)c1 -7.43%
CCOc1ccc(N(C)S(=O)(=O)c2cc(-c3cnc(C)o3)ccc2OC)cc1 -33.5%
CN(C)S(=O)(=O)c1ccc2c(c1)N(CC(=O)N1CCC(C(N)=O)CC1)CCS2 -4.91%
CC1CCCN(c2ncnc3c2nnn3C)C1 (configuration not stated) 27.5%
CCCOC(=O)c1cccc(Nc2nc(C(=O)OCC)nc3ccccc23)c1 -50.7%
O=C(Nc1ccc(C(F)(F)F)cc1)C1(c2cccs2)CCOCC1 -17.6%
CCC1CN(C(=O)N2CCC(C(=O)NCc3ccccc3F)CC2)c2ccccc2O1 (configuration not stated) -23%
CCOc1ccc(NC(=O)c2cc(S(=O)(=O)N3CCC(C)CC3)cn2C)cc1 -14.4%
COc1ccc(CNC(=O)Cc2ccc(NC(=O)N3CCCCc4ccccc43)cc2)cc1 -17.6%
Cc1ccc(NC(=O)c2c(C)oc3ncnc(N4CCCCC4)c23)c(C)c1 -26.7%
CC(Oc1ccccc1F)C(=O)NCC1(N2CCOCC2)CCCCC1 (configuration not stated) -20.6%
Cc1cc(C)cc(NC(=O)c2cc(S(=O)(=O)N3CCCCC3)c[nH]2)c1 -15.8%
CC(C)CN(CC(C)C)c1nnc(NC(=O)Nc2cccc(C(F)(F)F)c2)s1 -9.22%
COc1ccc(OCC(=O)Nc2ccc3c(c2)N(C)C(=O)c2ccccc2S3)cc1 -35.5%
CCOc1ccc(CNC(=O)c2ccc(Sc3ccc(C)cc3)c(N)c2)cc1OC -40.8%
COc1ccc(-c2cc(C(=O)Nc3c(C(=O)c4ccc(C)c(F)c4)oc4ccccc34)no2)cc1 17.9%
Cc1ccc2nc(Cl)c3cc(C(=O)N4CCCC(C)C4)sc3c2c1 (configuration not stated) -14.4%
CCn1c(=O)c2cc(C(=O)NCCc3ccc(OC)c(OC)c3)sc2c2ccccc21 -41.8%
COC(=O)CSc1nnc(-c2cccc(O)c2)o1 -2.7%
COC(=O)Cn1c(SCCOc2ccccc2Cl)nc2ccccc21 -5.59%
O=C(CCS(=O)(=O)c1nc(-c2ccc3c(c2)OCO3)cc(C(F)(F)F)n1)Nc1ccccc1C(F)(F)F -25.9%
COc1ccc(C(C)=O)cc1CSc1nc(NCc2ccc(Cl)cc2)c2ccccc2n1 -6.88%
CCOC(=O)c1cc(-c2ccc(C)cc2)n(CC(=O)Nc2cc(C)ccc2C)c1C -1.32%
COc1ccc(-c2cc(C(F)(F)F)n3nc(C(=O)Nc4cccc(Cl)c4Cl)cc3n2)cc1OC -16%
CC1=C(C(=O)Nc2ccc(C)cc2C)C(c2cc(Br)ccc2F)n2ncc(C(=O)Nc3ccc(C)cc3)c2N1 (configuration not stated) -20.4%
CCc1ccccc1NC(=O)c1cc(S(=O)(=O)N2CCC(C)CC2)cn1C -19.4%
CC(=O)Nc1sc2c(c1-c1nc3ccccc3s1)CNC2 -40.3%
COc1ccc(-c2cc(C(F)(F)F)n3nc(C(=O)Nc4ccc(Cl)cc4C(F)(F)F)cc3n2)cc1OC 6.37%
Cc1cccc(C)c1NC(=O)Cn1c(=O)n(CCC(=O)NCc2ccc3c(c2)OCO3)c(=O)c2sccc21 -13.5%
COc1ccc(C(=O)N2CCN(CCc3ccccn3)CC2)cc1 -9.54%
Cc1oc(-c2ccccc2)nc1Cn1c(=O)cc(-c2ccccc2)c2c(C)nn(C)c21 -19.3%
Cc1ccc(NC(=O)c2cnc(SCC(=O)N3CCCc4ccccc43)n(C)c2=O)cc1C -6.32%
Cc1cccc(NC(=O)c2cc3c(C)nn(-c4ccccc4)c3s2)c1 -16.7%
O=C(NCc1ccc2c(c1)CCN2C(=O)c1ccncc1)c1cccc(F)c1 11.7%
CCOC(=O)c1[nH]c(C)c(C(=O)NCc2ccccc2Cl)c1C -17.7%
O=C(CCc1nnc2n(Cc3ccccc3Cl)c(=O)c3ccccc3n12)Nc1ccccc1 -2.44%
COc1ccc(NC(=O)c2ccc(-c3nc(CSc4ccccc4)c(C)o3)cc2)c(OC)c1 -14.6%
CCCCN(c1ccccc1)S(=O)(=O)c1cc2c3c(c1)C(C)C(=O)N3CCC2 (configuration not stated) -29.7%
CCOc1ccc(NC(=O)Cn2cc(C(=O)c3ccccc3)c(=O)c3cc(OC)ccc32)cc1 -18.1%
CCN1C(=O)c2ccccc2S(=O)c2ccc(C(=O)N3CCN(c4cccc(Cl)c4)CC3)cc21 (configuration not stated) -43.3%
COC(=O)c1cc(NC(=O)CCc2c(C)nc3nc(C)nn3c2C)cc(C(=O)OC)c1 -12%
O=C(Cc1ccc(F)cc1)NCCc1csc2nc(-c3ccc(Cl)cc3)nn12 -27.2%
CCCCn1c(SCc2ccccc2C#N)nc2c(sc3ccccc32)c1=O -1.2%
Cc1ccc(-n2ncc3c(=O)n(Cc4cccc(C(F)(F)F)c4)cnc32)cc1C -10.6%
CC1=C(C(=O)Nc2ccccc2C)C(c2ccc[nH]2)n2ncnc2N1 (configuration not stated) -0.309%
CCOC(=O)Cn1c(=O)cc(C)c2c(C)nn(-c3cccc(F)c3)c21 -14.6%
Cc1ccc2c(c1)-c1onc(C(=O)N(C)c3ccc(F)cc3)c1CO2 11.9%
Cc1ccc(CNC(=O)CCCn2nc(C)n3c(cc4sccc43)c2=O)cc1 2.33%
COc1cccc(C(=O)c2cn(CC(=O)Nc3ccc4c(c3)OCCO4)c3nc(C)ccc3c2=O)c1 -18.6%
Cc1ccc(NC(=O)NCc2c(-n3cccc3)sc3c2CCCC3)c(Cl)c1 -4.62%
CCC(=O)N1CCc2cc(S(=O)(=O)NC(CC(C)C)C(=O)NCc3cccc(OC)c3)ccc21 (configuration not stated) -6.36%
CCOC(=O)c1cccc(NC(=O)NC2COc3ccccc3C2)c1 (configuration not stated) -20.5%
Cc1cccc(C)c1NC(=O)c1cc2sccc2n1Cc1ccc(F)cc1 -15.7%
CCN(Cc1ccccc1)S(=O)(=O)c1ccc(F)c(C(=O)Nc2ccc(C(C)C)cc2)c1 -16.1%
COc1ccc(OC)c(CNc2ncc(-c3ccc(Cl)cc3)n2C)c1 -6.19%
COc1cc(NC(=O)C2CCN(S(=O)(=O)c3c(C)noc3/C=C/c3c(C)cc(C)cc3C)CC2)cc(OC)c1 12.9%
